Changes are numbered by the printed parent chain; changes in the protein carry UniProt numbers. Some of the results follow.

Sequences and labels used below:
B1: AAGCCCG (DNA:RNA)
RNA: GGGAGACCGGAAUUCAGAUUGUCCAAGCCCGUUAAAUCCCGUCGUAGCCACCA
DNA 1: CAATCTGAATTCCGGTCTCCC
DNA 2: TGGTGGCTACGACGGGATT
B2: UUGCGAU (DNA:RNA)
RNA: B1 RNA with A25U, A26U, C29G, C30A, G31U
DNA 1: CAATCTGAATTCCGGTCTCCC
DNA 2: TGGTGGCTACGACGGGATT
B3: GCUUUAC (DNA:RNA)
RNA: GGGAGACCGGAAUUCAGAUUGUCCGCUUUACUUAAAUCCCGUCGUAGCCACCA
DNA 1: CAATCTGAATTCCGGTCTCCC
DNA 2: TGGTGGCTACGACGGGATT
B4: UCAACUA (DNA:RNA)
RNA: B1 RNA with A25U, A26C, G27A, C28A, C30U, G31A
DNA 1: CAATCTGAATTCCGGTCTCCC
DNA 2: TGGTGGCTACGACGGGATT
B5: UAGCGAC (DNA:RNA)
RNA: B1 RNA with A25U, C29G, C30A, G31C
DNA 1: CAATCTGAATTCCGGTCTCCC
DNA 2: TGGTGGCTACGACGGGATT
B6: GAGACAU (DNA:RNA)
RNA: B1 RNA with A25G, C28A, C30A, G31U
DNA 1: CAATCTGAATTCCGGTCTCCC
DNA 2: TGGTGGCTACGACGGGATT
B7: AAGAUAC (DNA:RNA)
RNA: B1 RNA with C28A, C29U, C30A, G31C
DNA 1: CAATCTGAATTCCGGTCTCCC
DNA 2: TGGTGGCTACGACGGGATT
B8: GCGAUUA (DNA:RNA)
RNA: B3 RNA with U27G, U28A, A30U, C31A
DNA 1: CAATCTGAATTCCGGTCTCCC
DNA 2: TGGTGGCTACGACGGGATT
B9: UCAAAAG (DNA:RNA)
RNA: B3 RNA with G25U, U27A, U28A, U29A, C31G
DNA 1: CAATCTGAATTCCGGTCTCCC
DNA 2: TGGTGGCTACGACGGGATT

This assay deals with T1, RBFOX1 RRM RbFoxmut (Fox-RRM*) (Homo sapiens, UniProt Q9NWB1 109-208, R118D;E147R;N151S;E152T).
T1 sequence: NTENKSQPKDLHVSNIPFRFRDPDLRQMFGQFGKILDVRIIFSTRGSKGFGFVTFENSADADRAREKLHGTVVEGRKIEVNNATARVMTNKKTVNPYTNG
Kind of assay: EMSA; HiTS-Eq, 1 nM pool, 10 min; buffer printed only for the single-RNA assays: 10 mM Tris pH 7.5, 150 mM NaCl, 3.4 mM EDTA, 0.001% NP-40, 30 C. The note with it: tags: His6 N-terminal (pET28a); label: 5' 32P. In outline: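 Purified RbFox RRM, wild type or mutant, was incubated for 10 min in 50 µL with 1 nM of a 5′-radiolabelled RNA pool carrying 7 randomized nucleotides, whose flanks were annealed to DNA oligonucleotides, over a series of increasing protein concentrations. Unbound RNA was resolved on 8% native PAGE, cut out, reverse-transcribed, barcoded by PCR and sequenced on an Illumina HiSeq 2500. Relative association constants were derived from changes in read counts for each RNA species versus the control reaction and normalised to the cognate motif.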
Background: Mobility shift assays separate free from complexed probe on a gel.
For the molecule B1, the binding signal was 0.0927 KA relative to UGCAUGU.

Regarding B2, the binding signal was 0.0679 KA relative to UGCAUGU.

With B3, the binding signal is 0.0917 KA relative to UGCAUGU.

For B4, the binding signal is 0.0945 KA relative to UGCAUGU.

Turning to B5, the binding signal is 0.0747 KA relative to UGCAUGU.

Turning to B6, the binding signal is 0.0505 KA relative to UGCAUGU.

As for B7, the binding signal was 0.0675 KA relative to UGCAUGU.

As to B8, the binding signal was 0.0835 KA relative to UGCAUGU.

As to B9, the binding signal was 0.0777 KA relative to UGCAUGU.

Source of the values: paper PMC9911399, “Two distinct binding modes provide the RNA-binding protein RbFox with extraordinary sequence specificity”.
